# Test results from the supplement of paper PMC8728848.
# This is one part of the list.
# How the values were obtained:
# Experiment in all cases: glycan array binding signal (z-score within array); higher = stronger binding
# Conditions in all cases: glycan notation: IUPAC condensed, linker removed
# [1] = biological target: Fuc(a1-3)GlcNAc
# How it was run: (§1)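 Arrays were curated from the Consortium for Functional Glycomics database, 3228 in total, and kept only where the protein sequence was available. Binding is expressed as a within-array Z-score. This score was averaged across arrays of the same protein sequence at different concentrations or buffers and across linkers, and negative values can be read as non-binding.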
# [2] = biological target: Fuc(a1-3)[Gal(b1-4)]Glc6S
# How it was run: as §1
# [3] = biological target: Fuc(a1-3)[Gal(b1-4)]GlcNAc
# How it was run: as §1
# [4] = biological target: Fuc(a1-3)[Gal(b1-4)]GlcNAc(b1-2)Man
# How it was run: as §1
# [5] = biological target: Fuc(a1-3)[Gal(b1-4)]GlcNAc(b1-2)Man(a1-3)[Fuc(a1-3)[Gal(b1-4)]GlcNAc(b1-2)Man(a1-6)]Man(b1-4)GlcNAc(b1-4)GlcNAc
# How it was run: as §1
# [6] = biological target: Fuc(a1-3)[Gal(b1-4)]GlcNAc(b1-2)Man(a1-3)[Fuc(a1-3)[Gal(b1-4)]GlcNAc(b1-2)Man(a1-6)]Man(b1-4)GlcNAc(b1-4)[Fuc(a1-6)]GlcNAc
# How it was run: as §1
# [7] = biological target: Fuc(a1-3)[Gal(b1-4)]GlcNAc(b1-3)Gal(b1-3)[Fuc(a1-4)]GlcNAc
# How it was run: as §1
# [8] = biological target: Fuc(a1-3)[Gal(b1-4)]GlcNAc(b1-3)Gal(b1-4)[Fuc(a1-3)]GlcNAc
# How it was run: as §1
# [9] = biological target: Fuc(a1-3)[Gal(b1-4)]GlcNAc(b1-3)Gal(b1-4)[Fuc(a1-3)]GlcNAc(b1-3)Gal(b1-4)[Fuc(a1-3)]GlcNAc
# How it was run: as §1
# [10] = biological target: Fuc(a1-3)[Gal(b1-4)]GlcNAc(b1-3)GalNAc
# How it was run: as §1
# [11] = biological target: Fuc(a1-3)[Gal(b1-4)]GlcNAc(b1-6)GalNAc
# How it was run: as §1
# [12] = biological target: Fuc(a1-3)[Gal(b1-4)]GlcNAc(b1-6)[Gal(b1-3)GlcNAc(b1-3)]Gal(b1-4)Glc
# How it was run: as §1
# [13] = biological target: Fuc(a1-3)[Gal(b1-4)]GlcNAc6S
# How it was run: as §1
# [14] = biological target: Fuc(a1-3)[Gal3S(b1-4)]Glc
# How it was run: as §1
# [15] = biological target: Fuc(a1-3)[Gal3S(b1-4)]GlcNAc
# How it was run: as §1
# [16] = biological target: Fuc(a1-3)[Gal3S(b1-4)]GlcNAc6S
# How it was run: as §1
# [17] = biological target: Fuc(a1-3)[GalNAc(b1-4)]GlcNAc
# How it was run: as §1
# [18] = biological target: Fuc(a1-3)[GalNAc(b1-4)]GlcNAc6S
# How it was run: as §1
# [19] = biological target: Fuc(a1-4)GlcNAc
# How it was run: as §1
# [20] = biological target: Fuc(b1-3)GlcNAc
# How it was run: as §1
# [21] = biological target: Gal(a1-2)Gal
# How it was run: as §1
# [22] = biological target: Gal(a1-3)Gal
# How it was run: as §1
# [23] = biological target: Gal(a1-3)Gal(b1-3)GlcNAc
# How it was run: as §1
# [24] = biological target: Gal(a1-3)Gal(b1-3)GlcNAc(b1-2)Man
# How it was run: as §1
# [25] = biological target: Gal(a1-3)Gal(b1-3)GlcNAc(b1-2)Man(a1-3)[Gal(a1-3)Gal(b1-3)GlcNAc(b1-2)Man(a1-6)]Man(b1-4)GlcNAc(b1-4)GlcNAc
# How it was run: as §1
# [26] = biological target: Gal(a1-3)Gal(b1-3)GlcNAc(b1-3)GalNAc
# How it was run: as §1
# [27] = biological target: Gal(a1-3)Gal(b1-3)GlcNAc(b1-6)GalNAc
# How it was run: as §1
# [28] = biological target: Gal(a1-3)Gal(b1-3)[Fuc(a1-4)]GlcNAc(b1-2)Man(a1-3)[Gal(a1-3)Gal(b1-3)[Fuc(a1-4)]GlcNAc(b1-2)Man(a1-6)]Man(b1-4)GlcNAc(b1-4)GlcNAc
# How it was run: as §1
# [29] = biological target: Gal(a1-3)Gal(b1-4)Glc
# How it was run: as §1
# [30] = biological target: Gal(a1-3)Gal(b1-4)GlcNAc
# How it was run: as §1
# [31] = biological target: Gal(a1-3)Gal(b1-4)GlcNAc(b1-2)Man
# How it was run: as §1
# [32] = biological target: Gal(a1-3)Gal(b1-4)GlcNAc(b1-2)Man(a1-3)[Gal(a1-3)Gal(b1-4)GlcNAc(b1-2)Man(a1-6)]Man(b1-4)GlcNAc(b1-4)GlcNAc
# How it was run: as §1
# [33] = biological target: Gal(a1-3)Gal(b1-4)GlcNAc(b1-3)GalNAc
# How it was run: as §1
# [34] = biological target: Gal(a1-3)Gal(b1-4)GlcNAc(b1-6)GalNAc
# How it was run: as §1
# [35] = biological target: Gal(a1-3)Gal(b1-4)[Fuc(a1-3)]GlcNAc
# How it was run: as §1
# [36] = biological target: Gal(a1-3)Gal(b1-4)[Fuc(a1-3)]GlcNAc(b1-2)Man(a1-3)[Gal(a1-3)Gal(b1-4)[Fuc(a1-3)]GlcNAc(b1-2)Man(a1-6)]Man(b1-4)GlcNAc(b1-4)GlcNAc
# How it was run: as §1
# [37] = biological target: Gal(a1-3)GalNAc
# How it was run: as §1
# [38] = biological target: Gal(a1-3)[Gal(a1-4)]Gal(b1-4)GlcNAc
# How it was run: as §1
# [39] = biological target: Gal(a1-4)Gal(b1-3)GlcNAc(b1-2)Man(a1-3)[Gal(a1-4)Gal(b1-3)GlcNAc(b1-2)Man(a1-6)]Man(b1-4)GlcNAc(b1-4)GlcNAc
# How it was run: as §1
# [40] = biological target: Gal(a1-4)Gal(b1-4)Glc
# How it was run: as §1
# [41] = biological target: Gal(a1-4)Gal(b1-4)GlcNAc
# How it was run: as §1
# [42] = biological target: Gal(a1-4)Gal(b1-4)GlcNAc(b1-2)Man(a1-3)[Gal(a1-4)Gal(b1-4)GlcNAc(b1-2)Man(a1-6)]Man(b1-4)GlcNAc(b1-4)GlcNAc
# How it was run: as §1
# [43] = biological target: Gal(a1-4)Gal(b1-4)GlcNAc(b1-3)Gal(b1-4)Glc
# How it was run: as §1
# [44] = biological target: Gal(a1-4)GlcNAc
# How it was run: as §1
# [45] = biological target: Gal(a1-6)Glc
# How it was run: as §1
binder,measurement,setting,value
FimA-N1 (Actinomyces oris) (protein) MHHHHHHSSGVDLGTENLYFQSNATETPNYGNIKTDATGSLVIHKHLTGGGKDIGTPTGTAQNADDKGPAVEGVVFTAYPITDINLKDPAGWDTISNLSRTGVPDSACANPAAPTLGAHQFGTPKVSPATTKEGLATITEMPVQAYLVCETTTPGDIVQKAKPFVVTIPHPNTAAGADGQWIYDVNVYPKNEAIDVDKTIQAQK,glycan array binding signal (z-score),[1],-0.336
same,glycan array binding signal (z-score),[2],1.03
same,glycan array binding signal (z-score),[3],-0.288
same,glycan array binding signal (z-score),[4],0.002
same,glycan array binding signal (z-score),[5],0.122
same,glycan array binding signal (z-score),[6],-0.215
same,glycan array binding signal (z-score),[7],-0.054
same,glycan array binding signal (z-score),[8],0.245
same,glycan array binding signal (z-score),[9],-0.518
same,glycan array binding signal (z-score),[10],-0.221
same,glycan array binding signal (z-score),[11],-0.055
same,glycan array binding signal (z-score),[12],-0.312
same,glycan array binding signal (z-score),[13],-0.211
same,glycan array binding signal (z-score),[14],-0.164
same,glycan array binding signal (z-score),[15],0.64
same,glycan array binding signal (z-score),[16],0.124
same,glycan array binding signal (z-score),[17],0.433
same,glycan array binding signal (z-score),[18],-0.33
same,glycan array binding signal (z-score),[19],0.275
same,glycan array binding signal (z-score),[20],-0.154
same,glycan array binding signal (z-score),[21],-0.423
same,glycan array binding signal (z-score),[22],-0.097
same,glycan array binding signal (z-score),[23],1.89
same,glycan array binding signal (z-score),[24],-0.417
same,glycan array binding signal (z-score),[25],-0.21
same,glycan array binding signal (z-score),[26],-0.231
same,glycan array binding signal (z-score),[27],-0.199
same,glycan array binding signal (z-score),[28],-0.118
same,glycan array binding signal (z-score),[29],-0.217
same,glycan array binding signal (z-score),[30],0.372
same,glycan array binding signal (z-score),[31],-0.38
same,glycan array binding signal (z-score),[32],1.63
same,glycan array binding signal (z-score),[33],-0.363
same,glycan array binding signal (z-score),[34],-0.093
same,glycan array binding signal (z-score),[35],-0.28
same,glycan array binding signal (z-score),[36],-0.107
same,glycan array binding signal (z-score),[37],-0.307
same,glycan array binding signal (z-score),[38],0.219
same,glycan array binding signal (z-score),[39],0.288
same,glycan array binding signal (z-score),[40],-0.077
same,glycan array binding signal (z-score),[41],0.483
same,glycan array binding signal (z-score),[42],0.207
same,glycan array binding signal (z-score),[43],-0.445
same,glycan array binding signal (z-score),[44],-0.245
same,glycan array binding signal (z-score),[45],-0.164
